Measured values as given in the supplement of paper PMC6828730.
The other results are listed elsewhere or left out. Repeats are few or missing, and single values can be far off.

Tests used:
[1] = system: hiPSC-derived cardiomyocytes; assay: time to death of most cells in well after compound addition (days); higher = less cardiotoxic; details: screen: 1; 10 µM
[2] = system: hiPSC-derived cardiomyocytes; assay: time to death of most cells in well after compound addition (days); higher = less cardiotoxic; extreme values may be limits of the assay; details: 10 µM

| SMILES | time to death of most cells in well [1] | time to death of most cells in well ([2]; screen: 2) | time to death of most cells in well ([2]; screen: 3) | time to death of most cells in well ([2]; screen: 4) |
| --- | --- | --- | --- | --- |
| COc1ccc(Cl)cc1NC(=O)Nc1cc(C)nc2ccccc12 | > 7 | > 7 | 6.5 | > 7 |
| CCOc1cc(C(=O)N2CCC(N3CCN(C)CC3)CC2)ccc1Nc1ncc2c(n1)N(C1CCCC1)c1ccccc1C(=O)N2C | 4 | 1 | 1.5 | 3 |
| COc1ccc(F)c(F)c1C(=O)c1cnc(NC2CCN(S(C)(=O)=O)CC2)nc1N | 2 | 2.5 | 6.5 | > 7 |
| CN1CCN(c2ccc(C(=O)Nc3n[nH]c4ccc(Cc5cc(F)cc(F)c5)cc34)c(NC3CCOCC3)c2)CC1 [Entrectinib (RXDX-101)] | 1 | 2.5 | 3.5 | 1.5 |
| O=c1[nH]nc(Sc2ncc([N+](=O)[O-])s2)n1-c1ccc2c(c1)OCCO2 | 3 | 0.5 | 0.5 | 0.5 |
| CNC(=O)c1cc(Oc2ccc(NC(=O)Nc3cc(C(C)(C)C)nn3-c3ccc4ncccc4c3)c(F)c2)ccn1 [Rebastinib (DCC-2036)] | 6 | 6 | > 7 | > 7 |
| CO[C@@H](C(=O)N1Cc2[nH]nc(NC(=O)c3ccc(N4CCN(C)CC4)cc3)c2C1)c1ccccc1 | > 7 | 3.5 | > 7 | > 7 |
| COc1cc2nccc(Oc3ccc(NC(=O)Nc4cc(C)on4)c(Cl)c3)c2cc1OC [Tivozanib (AV-951)] | 3 | > 7 | > 7 | > 7 |
| CCNC(=O)Nc1ccc(-c2nc3c(c(N4CCOC[C@@H]4C)n2)CCN(C2COC2)C3)cc1 | 3 | 2.5 | > 7 | > 7 |
| Cc1cc(C(=O)NOCCO)c(Nc2ccc(I)cc2F)n(C)c1=O | > 7 | > 7 | > 7 | > 7 |
| Cc1nc2c(-c3cnc(N)nc3)nc(N3CCOCC3)nc2n1C(C)C | 3.5 | 4.5 | > 7 | > 7 |
| CNC(=O)c1nn(C)c2c1C(C)(C)Cc1cnc(Nc3ccc(N4CCN(C)CC4)cc3)nc1-2 | 6 | 5 | 6 | > 7 |
| Cc1c(Cn2c(C)nc3c(C(=O)O)cc(N4CCOCC4)cc32)cccc1C(F)(F)F | > 7 | > 7 | > 7 | > 7 |
| CN1CCN(c2ccc(-c3ccncc3-c3cc(F)c(O)c(F)c3)cc2)CC1 | > 7 | > 7 | > 7 | > 7 |
| C[C@H](Nc1ncnc2nc[nH]c12)c1cc2cccc(Cl)c2c(=O)n1-c1ccccc1 [Duvelisib (IPI-145, INK1197)] | 2.5 | 2 | 3.5 | > 7 |
| Cn1cnc(=N)c2[nH]cnc21 [3-Methyladenine (3-MA)] | > 7 | > 7 | > 7 | > 7 |
| Oc1cc(O)cc(/C=C/c2ccc(O)c(O)c2)c1 [Piceatannol] | > 7 | > 7 | > 7 | > 7 |
| CC[C@@H]1C(=O)N(C)c2cnc(Nc3ccc(C(=O)NC4CCN(C)CC4)cc3OC)nc2N1C1CCCC1 | 4.5 | > 7 | 3.5 | 3 |
| COc1cc(N2CCC(N)CC2)ccc1Nc1ncc(Cl)c(-c2c[nH]c3ccccc23)n1 | 3 | 2 | 1.5 | 1.5 |
| C[C@H](Nc1ncnc2[nH]cnc12)c1cc2ccc(F)cc2nc1-c1ccccn1 | > 7 | > 7 | > 7 | > 7 |
| O=C(c1ccc(/C=C/c2n[nH]c3ccccc23)cc1)N1CCNCC1 | 6.5 | 3.5 | > 7 | > 7 |
| Oc1ccc(-c2nc(-c3ccc(F)cc3)c(-c3ccncc3)[nH]2)cc1 | > 7 | 1 | > 7 | > 7 |
| O=c1cc(-c2cccc3c2Sc2ccccc2S3)oc(N2CCOCC2)c1 | > 7 | 1.5 | > 7 | > 7 |
| C=CC(=O)Nc1ccc2ncnc(Nc3ccc(OCc4cccc(F)c4)c(Cl)c3)c2c1 | 6 | > 7 | > 7 | > 7 |
| COc1cc(Nc2ncc(F)c(Nc3ccc4c(n3)N(COP(=O)(O)O)C(=O)C(C)(C)O4)n2)cc(OC)c1OC [Fostamatinib (R788)] | 1 | > 7 | > 7 | > 7 |
| Cc1cc(NC(=O)c2cccc(NC(=O)/C=C/CN(C)C)c2)ccc1Nc1nccc(-c2cccnc2)n1 | 5.5 | 5.5 | 4 | 4 |
| CN1CCN(C2CCN(C(=O)Nc3cc(Oc4ccc(NC(=O)C5(C(=O)Nc6ccc(F)cc6)CC5)c(F)c4)ccn3)CC2)CC1 [Golvatinib (E7050)] | > 7 | > 7 | > 7 | > 7 |
